Assay results published in patent US20190209704A1 (IGENICA BIOTHERAPEUTICS, published 2019).
Read-outs that look alike come from different tables or passages of the source.

Assays:
[1] = molecular target: T1, CD98 on cells (SKOV3, H446, RAMOS, MOLM13) (UniProt P08195 2-529, limits assumed); experiment: cell-based or functional assay
T1 sequence (looked up): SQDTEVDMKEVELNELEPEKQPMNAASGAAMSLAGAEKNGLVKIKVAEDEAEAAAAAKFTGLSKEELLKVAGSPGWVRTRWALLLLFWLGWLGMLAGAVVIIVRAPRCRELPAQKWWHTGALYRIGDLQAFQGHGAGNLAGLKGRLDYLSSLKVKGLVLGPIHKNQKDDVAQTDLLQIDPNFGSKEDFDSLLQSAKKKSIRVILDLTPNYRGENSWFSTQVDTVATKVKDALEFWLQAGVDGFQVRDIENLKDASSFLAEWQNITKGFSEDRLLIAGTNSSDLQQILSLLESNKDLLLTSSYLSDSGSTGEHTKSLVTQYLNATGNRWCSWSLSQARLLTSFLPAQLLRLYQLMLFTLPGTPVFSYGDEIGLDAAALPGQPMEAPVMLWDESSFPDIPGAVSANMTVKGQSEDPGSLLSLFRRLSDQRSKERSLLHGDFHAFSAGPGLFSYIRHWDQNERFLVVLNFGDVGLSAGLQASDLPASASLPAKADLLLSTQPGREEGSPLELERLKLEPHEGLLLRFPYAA

[2] = molecular target: T2, CD98 (purified antigen) (UniProt P08195 105-529, limits assumed); experiment: SPR (BioRad ProteOn XPR 36), ADC captured on goat anti-human Fc surface, 25 C, 1:1 model
T2 construct: Only called 'its purified antigen, CD98'; construct not described
T2 sequence (looked up): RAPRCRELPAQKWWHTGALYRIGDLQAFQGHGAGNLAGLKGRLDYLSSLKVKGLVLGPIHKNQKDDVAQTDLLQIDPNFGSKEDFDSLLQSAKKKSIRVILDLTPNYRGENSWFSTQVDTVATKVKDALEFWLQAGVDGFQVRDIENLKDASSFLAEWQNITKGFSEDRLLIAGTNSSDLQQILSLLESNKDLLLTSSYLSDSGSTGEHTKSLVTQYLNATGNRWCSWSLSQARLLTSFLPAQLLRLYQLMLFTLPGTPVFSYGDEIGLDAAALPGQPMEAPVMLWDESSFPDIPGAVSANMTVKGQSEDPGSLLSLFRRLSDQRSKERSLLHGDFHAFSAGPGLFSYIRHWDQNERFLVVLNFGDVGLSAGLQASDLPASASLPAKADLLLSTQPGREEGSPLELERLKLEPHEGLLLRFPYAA

[3] = molecular target: T1, CD98 on cells (SKOV3, H446, RAMOS, …); experiment: cell-based or functional assay; remark: listed apart in the source
[4] = molecular target: T1, CD98 on cells (SKOV3, H446, RAMOS, …); experiment: cell-based or functional assay; remark: listed apart in the source
[5] = molecular target: T3, CD98 on tumour cells (UniProt P08195 2-529, limits assumed); experiment: cell-based or functional assay
T3 sequence (looked up): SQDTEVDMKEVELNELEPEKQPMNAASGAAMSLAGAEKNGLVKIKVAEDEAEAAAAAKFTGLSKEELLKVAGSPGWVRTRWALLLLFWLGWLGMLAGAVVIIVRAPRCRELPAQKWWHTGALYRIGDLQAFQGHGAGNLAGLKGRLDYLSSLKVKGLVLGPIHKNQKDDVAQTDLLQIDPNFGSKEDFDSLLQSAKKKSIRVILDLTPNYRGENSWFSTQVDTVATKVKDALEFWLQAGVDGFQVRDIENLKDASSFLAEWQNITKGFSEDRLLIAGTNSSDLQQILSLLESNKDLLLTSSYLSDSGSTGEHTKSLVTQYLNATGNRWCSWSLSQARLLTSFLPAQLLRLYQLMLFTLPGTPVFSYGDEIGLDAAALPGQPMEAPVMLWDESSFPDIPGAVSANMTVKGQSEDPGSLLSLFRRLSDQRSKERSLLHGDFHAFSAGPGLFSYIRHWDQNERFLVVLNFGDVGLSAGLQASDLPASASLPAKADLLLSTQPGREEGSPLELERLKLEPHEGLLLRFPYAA

[6] = molecular target: T2, CD98 (purified antigen); experiment: SPR (BioRad ProteOn XPR 36), antibody captured on goat anti-human Fc surface, 25 C, 1:1 model

B1: IGN523-DBM(C6)-MMAF (antibody, human IgG1, kappa)
heavy: QVQLVQSGAEVKKPGSSVKVSCKASGNAFTNYLIEWVRQAPGQGLEWMGVINPGSGITNYNEKFKGKATITADKSTSTAYMELSSLRSEDTAVYYCSGSANWFAYWGQGTLVTVSSASTKGPSVFPLAPSSKSTSGGTAALGCLVKDYFPEPVTVSWNSGALTSGVHTFPAVLQSSGLYSLSSVVTVPSSSLGTQTYICNVNHKPSNTKVDKRV[gap - human IgG1 Fc]
light: DIVMTQSPDSLAVSLGERATINCKSSQSLLYSSNQKNYLAWYQQKPGQPPKLLIYWASTRDSGVPDRFTGSGSGTDFTLTISSLQAEDVAVYYCQRYYGYPWTFGGGTKVEIKRTVAAPSVFIFPPSDEQLKSGTASVVCLLNNFYPREAKVQWKVDNALQSGNSQESVTEQDSKDSTYSLSSTLTLSKADYEKHKVYACEVTHQGLSSPVTKSFNRGEC
modifications: DBM(C6)-MMAF bridging the two cysteines of each opened interchain disulfide; DAR 4
notes: Antibody-drug conjugate of IGN523 (IgG1); also called DBM(C6)-MMAF-conjugated IGN523
**Q.** How did the “ADC Assays-IC50 Data (nM), H446 cells (Cell-Titer Glo, 3 days)” value [1] turn out when B1 was run?
**A.** The value was 0.05 nM.

**Q.** And the “ADC Assays-IC50 Data (nM), SKOV3 cells (Cell-Titer Glo, 3 days)” value [1]?
**A.** Its value is 0.1 nM.

**Q.** And the Kd [2]?
**A.** The Kd was 180 pM.

B2: IGN523-CPM(C6)-MMAF (antibody, human IgG1, kappa)
heavy: QVQLVQSGAEVKKPGSSVKVSCKASGNAFTNYLIEWVRQAPGQGLEWMGVINPGSGITNYNEKFKGKATITADKSTSTAYMELSSLRSEDTAVYYCSGSANWFAYWGQGTLVTVSSASTKGPSVFPLAPSSKSTSGGTAALGCLVKDYFPEPVTVSWNSGALTSGVHTFPAVLQSSGLYSLSSVVTVPSSSLGTQTYICNVNHKPSNTKVDKRV[gap - human IgG1 Fc]
light: DIVMTQSPDSLAVSLGERATINCKSSQSLLYSSNQKNYLAWYQQKPGQPPKLLIYWASTRDSGVPDRFTGSGSGTDFTLTISSLQAEDVAVYYCQRYYGYPWTFGGGTKVEIKRTVAAPSVFIFPPSDEQLKSGTASVVCLLNNFYPREAKVQWKVDNALQSGNSQESVTEQDSKDSTYSLSSTLTLSKADYEKHKVYACEVTHQGLSSPVTKSFNRGEC
modifications: CPM(C6)-MMAF bridging the two cysteines of each opened interchain disulfide; DAR 4
**Q.** How did the “ADC Assays - IC50 Data (nM), RAMOS cells (Cell-Titer Glo, 3 days)” value [3] turn out when B2 was run?
**A.** Its value is 0.09 nM.

**Q.** And the “ADC Assays-IC50 Data (nM), H446 cells (Cell-Titer Glo, 3 days)” value [3]?
**A.** The value was 0.01 nM.

**Q.** And the “ADC Assays-IC50 Data (nM), SKOV3 cells (Cell-Titer Glo, 3 days)” value [3]?
**A.** The value was 0.09 nM.

B3: IGN523(C226AC229A)-CPM(C6)-Val-Ala-PBD (antibody, human IgG1, kappa)
heavy: QVQLVQSGAEVKKPGSSVKVSCKASGNAFTNYLIEWVRQAPGQGLEWMGVINPGSGITNYNEKFKGKATITADKSTSTAYMELSSLRSEDTAVYYCSGSANWFAYWGQGTLVTVSSASTKGPSVFPLAPSSKSTSGGTAALGCLVKDYFPEPVTVSWNSGALTSGVHTFPAVLQSSGLYSLSSVVTVPSSSLGTQTYICNVNHKPSNTKVDKRV[gap - human IgG1 Fc with C226A C229A (EU numbers)]
light: DIVMTQSPDSLAVSLGERATINCKSSQSLLYSSNQKNYLAWYQQKPGQPPKLLIYWASTRDSGVPDRFTGSGSGTDFTLTISSLQAEDVAVYYCQRYYGYPWTFGGGTKVEIKRTVAAPSVFIFPPSDEQLKSGTASVVCLLNNFYPREAKVQWKVDNALQSGNSQESVTEQDSKDSTYSLSSTLTLSKADYEKHKVYACEVTHQGLSSPVTKSFNRGEC
modifications: CPM(C6)-Val-Ala-PBD bridging the heavy chain-light chain interchain disulfide cysteines; DAR 2
**Q.** For B3, which “MOLM13 IC50 (nM), in vitro cytotoxicity” value [4] is on record?
**A.** The value was 4e-05 nM.

B4: IGN523-DBM(C6)-MMAF (antibody)
heavy: QVQLVQSGAEVKKPGSSVKVSCKASGNAFTNYLIEWVRQAPGQGLEWMGVINPGSGITNYNEKFKGKATITADKSTSTAYMELSSLRSEDTAVYYCSGSANWFAYWGQGTLVTVSSASTKGPSVFPLAPSSKSTSGGTAALGCLVKDYFPEPVTVSWNSGALTSGVHTFPAVLQSSGLYSLSSVVTVPSSSLGTQTYICNVNHKPSNTKVDKRV[gap - human IgG1 Fc]
light: DIVMTQSPDSLAVSLGERATINCKSSQSLLYSSNQKNYLAWYQQKPGQPPKLLIYWASTRDSGVPDRFTGSGSGTDFTLTISSLQAEDVAVYYCQRYYGYPWTFGGGTKVEIKRTVAAPSVFIFPPSDEQLKSGTASVVCLLNNFYPREAKVQWKVDNALQSGNSQESVTEQDSKDSTYSLSSTLTLSKADYEKHKVYACEVTHQGLSSPVTKSFNRGEC
modifications: DBM(C6)-MMAF bridging the heavy-light interchain disulfide cysteines; DBM(C6)-MMAF bridging the two cysteines of each opened interchain disulfide; DAR 4
notes: as for B1
**Q.** With B4 as the binder, how does the “IC50, SKOV-3 cell viability (Cell-Titer Glo, three days)” value [5] read?
**A.** The value was 112 pM.

B5: IGN523 (antibody, human IgG1, kappa)
heavy: QVQLVQSGAEVKKPGSSVKVSCKASGNAFTNYLIEWVRQAPGQGLEWMGVINPGSGITNYNEKFKGKATITADKSTSTAYMELSSLRSEDTAVYYCSGSANWFAYWGQGTLVTVSSASTKGPSVFPLAPSSKSTSGGTAALGCLVKDYFPEPVTVSWNSGALTSGVHTFPAVLQSSGLYSLSSVVTVPSSSLGTQTYICNVNHKPSNTKVDKRV[gap - human IgG1 Fc]
light: DIVMTQSPDSLAVSLGERATINCKSSQSLLYSSNQKNYLAWYQQKPGQPPKLLIYWASTRDSGVPDRFTGSGSGTDFTLTISSLQAEDVAVYYCQRYYGYPWTFGGGTKVEIKRTVAAPSVFIFPPSDEQLKSGTASVVCLLNNFYPREAKVQWKVDNALQSGNSQESVTEQDSKDSTYSLSSTLTLSKADYEKHKVYACEVTHQGLSSPVTKSFNRGEC
notes: Unconjugated human IgG1; also called anti-CD98 antibody
**Q.** Which Kd [6] does the source give for B5 here?
**A.** The Kd was 140 pM.
